According to article PMC4336329 (PLoS ONE, 2015):
Among all 310,000 compounds or so, about 14,000 (4.5%) showed an effect of 50% or more. The effect is printed as a negative number. The list shows a part of the results.

These molecules were tested against human ether-à-go-go-related gene (hERG) potassium channel (human, UniProt Q12809) (assay: primary screen, population patch clamp on CHO cells stably expressing hERG).
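Further: peak tail current of the secondary pulse compared with the same well before compound.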

Chain of human ether-à-go-go-related gene (hERG) potassium channel (Q12809 whole entry, looked up): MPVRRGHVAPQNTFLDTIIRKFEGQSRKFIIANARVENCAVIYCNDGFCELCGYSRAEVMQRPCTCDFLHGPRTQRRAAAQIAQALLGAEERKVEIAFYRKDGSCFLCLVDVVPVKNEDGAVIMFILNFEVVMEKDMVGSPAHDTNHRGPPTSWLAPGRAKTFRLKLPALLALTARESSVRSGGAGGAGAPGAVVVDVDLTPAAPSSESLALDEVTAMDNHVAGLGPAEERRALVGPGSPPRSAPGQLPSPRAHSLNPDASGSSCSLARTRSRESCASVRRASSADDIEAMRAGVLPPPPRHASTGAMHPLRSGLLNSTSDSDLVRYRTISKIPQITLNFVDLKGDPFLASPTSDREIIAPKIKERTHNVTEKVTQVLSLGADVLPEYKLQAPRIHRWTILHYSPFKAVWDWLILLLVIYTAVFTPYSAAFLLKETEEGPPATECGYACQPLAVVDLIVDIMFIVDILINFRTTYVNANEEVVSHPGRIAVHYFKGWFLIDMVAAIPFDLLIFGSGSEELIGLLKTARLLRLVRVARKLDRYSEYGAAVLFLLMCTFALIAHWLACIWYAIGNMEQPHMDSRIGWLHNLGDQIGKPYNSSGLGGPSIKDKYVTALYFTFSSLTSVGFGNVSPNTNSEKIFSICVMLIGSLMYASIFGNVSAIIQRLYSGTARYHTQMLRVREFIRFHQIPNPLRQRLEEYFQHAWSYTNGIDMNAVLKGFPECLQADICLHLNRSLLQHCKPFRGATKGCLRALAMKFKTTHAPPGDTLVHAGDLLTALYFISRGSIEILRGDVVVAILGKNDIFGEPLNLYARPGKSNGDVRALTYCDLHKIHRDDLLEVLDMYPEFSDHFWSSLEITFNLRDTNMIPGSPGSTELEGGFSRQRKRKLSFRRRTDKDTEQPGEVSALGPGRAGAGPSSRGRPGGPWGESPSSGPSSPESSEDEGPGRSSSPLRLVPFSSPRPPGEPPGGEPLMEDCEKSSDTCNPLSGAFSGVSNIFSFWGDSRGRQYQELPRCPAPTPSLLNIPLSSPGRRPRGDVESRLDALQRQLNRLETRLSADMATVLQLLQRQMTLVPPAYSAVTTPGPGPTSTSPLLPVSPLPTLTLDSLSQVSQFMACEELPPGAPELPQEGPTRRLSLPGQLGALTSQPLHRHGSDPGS

Row | Compound | hERG current change (%, negative = inhibition) at 10uM
1 | CN(c1ccc(C(=O)Nc2cccnc2)cc1)S(=O)(=O)c1ccc(Cl)cc1 | 11.5%
2 | COc1ccc(S(=O)(=O)N/N=C(/C)c2ccco2)cc1 | -6.76%
3 | O=C(O)C1C2C=CC(C2)C1C(=O)NCc1ccoc1 (centres unmarked) | 13.8%
4 | CCOC(=O)c1csc(NC(=O)c2cccs2)n1 | -13.1%
5 | O=C(NCCCO)C(=O)NCC1OCCCN1S(=O)(=O)c1cccs1 (centres unmarked) | -10.6%
6 | COc1ccccc1N1CCN(/N=C(\C)c2ccccc2O)CC1 | -1.09%
7 | COc1ccccc1Nc1nc(-c2ccc3c(c2)NC(=O)CO3)cs1 | 11.1%
8 | CCOC(=O)c1cccc(NC(=O)N2CCOCC2)c1 | -49.7%
9 | O=C(NCCCn1ccnc1)C(=O)NCC(c1cccnc1)N1CCN(c2ccccc2)CC1 (centres unmarked) | 23.3%
10 | CN(C)c1cc[n+](CC(=O)c2ccc(OC(F)F)cc2)cc1.[Br-] | -21.5%
11 | CCOC(=O)C1=C(CC)Nc2ccccc2N/C1=N\S(=O)(=O)c1ccc2ccccc2c1 | -0.916%
12 | O=C(CN1CCc2ccccc21)NCc1ccccc1Cl | -18.5%
13 | CC(C)(C)NC(=O)C1Cc2ccccc2CN1C(=O)Nc1ccccc1Cl (centres unmarked) | 0.111%
14 | O=C1CCCN2N=C(SCC(=O)Nc3ccc(Cl)cc3)SC2=N1 | -11.5%
15 | CC(C)[C@H](NC(=O)NC1CCCc2ccccc21)C(=O)O (some centres unmarked) | -68.2%
16 | C/C(N)=C(/C#N)C(=O)COC(=O)C1CSC2(c3ccc(F)cc3)CCC(=O)N12 (centres unmarked) | 10.2%
17 | CN1CCN(C(=O)c2cnn3c2NC(c2ccccc2)CC3C(F)(F)F)CC1 (centres unmarked) | 17.1%
18 | Cc1ccc(S(=O)(=O)NC(=O)NCc2ccccn2)cc1 | -0.168%
19 | Cc1ccc(NC(=O)CN2c3cccc4cccc(c34)S2(=O)=O)cc1S(=O)(=O)N1CCOCC1 | 0.358%

Row | Compound | hERG current change (%, negative = inhibition) at 10uM
20 | CC(OC(=O)CN1C(=O)NC2(CCCCC2C)C1=O)c1ccccc1 (centres unmarked) | -42.4%
21 | Cc1ccccc1NC(=O)Cc1nc(CSc2nnc(C3CCCCC3)n2N)cs1 | -12.2%
22 | CCC(C)C(=O)Nc1nnc(SCC(=O)NC(C)(C)C)s1 (centres unmarked) | 24.6%
23 | COC(=O)c1ccc(NC(=O)CCS(=O)(=O)c2ccc(Br)cc2)cc1 | 28.8%
24 | COCCCNC(=O)c1ccccc1Oc1ccccc1 | -0.0631%
25 | COc1ccc2c(CC(=O)OCC(=O)Nc3ccc(C)cc3)coc2c1 | -1.56%
26 | COc1cccc(-n2nnnc2SCC(=O)Nc2ccc(OC)cc2OC)c1 | -30.3%
27 | CCOc1ccc(CCNC(=O)c2ccc(C)c(N3CCCC3=O)c2)cc1OCC | 9.19%
28 | CCCN(CC(=O)Nc1ccccc1C)C(=O)c1ccc(S(=O)(=O)N2CCCCC2)cc1 | -20.6%
29 | O=C(NCc1ccc(F)cc1)C(=O)NCC1OCCN1C(=O)c1cccs1 (centres unmarked) | -4.15%
30 | Cc1ccc(C(=O)/C=C/C(=O)c2ccc(C)cc2)cc1 | -5.92%
31 | CN(C)S(=O)(=O)c1ccc(Cl)c(NC(=O)COC(=O)C2CSC3(C)CCC(=O)N23)c1 (centres unmarked) | -6.02%
32 | COc1nc(Oc2ccc(=O)[nH]n2)nc(N2CCOCC2)n1 | -9.56%
33 | COc1ccc(-n2nnnc2-c2cccnc2)cc1 | 4.32%
34 | COC(=O)c1ccccc1NC(NC(=O)c1ccco1)C(=O)c1ccccc1 (centres unmarked) | -0.578%
35 | COc1cc(C(=O)NCC(=O)NCCN2C(=O)S/C(=C\c3ccccc3Cl)C2=O)cc(OC)c1OC | -27.6%
36 | Cc1csc(NC(=O)CCN2C(=O)c3ccccc3S2(=O)=O)n1 | -2.41%
37 | COc1cccc(CC(=O)Nc2nc(-c3ccc(OC)c(OC)c3)cs2)c1 | 15.4%
38 | CC(=O)c1ccc(NC(=O)c2ccc(CNc3c(N4CCCC4)c(=O)c3=O)cc2)cc1 | 6.96%

Row | Compound | hERG current change (%, negative = inhibition) at 10uM
39 | Cc1cccc(NC(=S)Nc2c(C)n(C)n(-c3ccccc3)c2=O)c1C | -2.23%
40 | COc1ccc(C2C(C#N)=C(N)OC3=C2C(=O)CC(C)(C)C3)c([N+](=O)[O-])c1OC (centres unmarked) | -44.5%
41 | COc1ccc(CCNc2nc(Cl)nc(NC(C)(C)CO)n2)cc1OC | 25%
42 | Cc1cc(C)nc(NN2C(=O)/C(=C/c3ccccc3)SC2=S)n1 | 5.58%
43 | CN1CCN(c2ccc(NC(=O)C(C)(c3ccccc3)c3ccccc3)cc2)CC1 | -24.7%
44 | Cc1nc(-c2ccccc2)nc(Cl)c1Cl | 9.95%
45 | CC(C)(C)OC(=O)N[C@H](C(=O)OC(C)(C)C)c1ccc(Br)cc1 | -2.45%
46 | CCNc1nc(NC(C)(C)C)nc(SC(C(C)=O)C(C)=O)n1 | -23.2%
47 | CS(=O)(=O)c1ccc2nc(NC(=O)c3ccc(=O)[nH]c3)sc2c1 | 9.39%
48 | CCC1CCCCN1CCCn1c(=S)[nH]c2ccccc2c1=O (centres unmarked) | -56.2%
49 | CC(Sc1nc(N)cc(=O)[nH]1)C(=O)Nc1sc2c(c1C#N)CCCC2 (centres unmarked) | 1.55%
50 | Nc1c(Br)c(=O)[nH]c(=O)n1-c1ccc(F)cc1 | 14.2%
51 | COC(=O)C(NC(C)=O)(Nc1nc2ccc(C)cc2s1)C(F)(F)F (centres unmarked) | 11.5%
52 | CCOC(=O)c1ccc(NC(C)=O)c([N+](=O)[O-])c1 | 7.41%
53 | O=C(NCc1ccccc1)c1n[nH]nc1-c1ccccc1O | -4.54%
54 | CC(C)Cn1c(N)c(C(=O)CSc2ncccn2)c(=O)n(C)c1=O | 6.81%
55 | COc1ccc(NC(=O)C(c2cc3c(cc2[N+](=O)[O-])OCO3)N(C)c2ccccc2)cc1 (centres unmarked) | 5.65%
56 | CSc1ccc(C(=O)C2CCCN(C(=O)c3ccc4c(c3)OCO4)C2)cc1 (centres unmarked) | -34%
